# Laboratory results reported in publication PMC4336329 (PLoS ONE, 2015).
# About 14,000 (4.5%) of roughly 310,000 compounds showed an effect of 50% or more. The effect is printed as a negative number. This is one part of the list.
# Target: human ether-à-go-go-related gene (hERG) potassium channel (human, UniProt Q12809)
# Assay: primary screen, population patch clamp on CHO cells stably expressing hERG
# 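Also: peak tail current of the secondary pulse compared with the same well before compound.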
# Sequence of human ether-à-go-go-related gene (hERG) potassium channel (Q12809 whole entry, looked up): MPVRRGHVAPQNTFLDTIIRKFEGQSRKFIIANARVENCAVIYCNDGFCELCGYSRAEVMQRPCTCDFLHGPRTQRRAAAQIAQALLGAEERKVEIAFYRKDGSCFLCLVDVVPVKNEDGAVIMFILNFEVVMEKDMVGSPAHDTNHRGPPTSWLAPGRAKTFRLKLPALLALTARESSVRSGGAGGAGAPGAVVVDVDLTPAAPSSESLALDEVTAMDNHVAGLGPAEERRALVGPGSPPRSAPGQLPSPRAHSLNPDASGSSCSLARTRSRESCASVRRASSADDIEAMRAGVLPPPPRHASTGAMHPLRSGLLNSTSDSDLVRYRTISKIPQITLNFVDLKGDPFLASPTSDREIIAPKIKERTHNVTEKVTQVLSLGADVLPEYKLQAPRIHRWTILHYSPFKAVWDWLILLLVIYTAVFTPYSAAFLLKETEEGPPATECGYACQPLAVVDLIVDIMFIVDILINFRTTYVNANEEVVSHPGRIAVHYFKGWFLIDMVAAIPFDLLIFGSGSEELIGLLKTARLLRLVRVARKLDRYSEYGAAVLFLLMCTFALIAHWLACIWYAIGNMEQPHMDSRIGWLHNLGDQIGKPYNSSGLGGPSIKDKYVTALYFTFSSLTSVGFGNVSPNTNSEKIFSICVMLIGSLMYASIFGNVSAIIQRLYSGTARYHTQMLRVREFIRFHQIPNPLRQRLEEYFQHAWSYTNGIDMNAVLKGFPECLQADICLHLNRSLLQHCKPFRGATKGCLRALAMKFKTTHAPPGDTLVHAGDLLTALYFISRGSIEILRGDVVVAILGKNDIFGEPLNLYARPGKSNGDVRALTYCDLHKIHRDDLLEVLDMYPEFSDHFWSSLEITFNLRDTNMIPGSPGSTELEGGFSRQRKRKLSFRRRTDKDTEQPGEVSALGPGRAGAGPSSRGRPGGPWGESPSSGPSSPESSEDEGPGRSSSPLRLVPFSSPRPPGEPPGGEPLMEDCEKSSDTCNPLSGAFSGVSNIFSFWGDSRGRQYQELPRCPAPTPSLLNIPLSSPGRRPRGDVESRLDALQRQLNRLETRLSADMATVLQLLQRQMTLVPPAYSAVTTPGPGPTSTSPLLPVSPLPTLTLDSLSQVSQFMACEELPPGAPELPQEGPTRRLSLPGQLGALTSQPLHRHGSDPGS
row,Structure (SMILES),"hERG current change (%, negative = inhibition) at 10uM [%]"
1,COc1cc2sc3ccc(C#Cc4ccccn4)cc3c(=O)c2cc1OC,14.9
2,O=S(=O)(N1CCCCC1)N1CCN(c2cc(Cl)ccc2Cl)CC1,15.2
3,Cc1nc2sc(C(c3cccs3)N3CCN(c4cccc(Cl)c4)CC3)c(O)n2n1 (centres unmarked),-38.8
4,Cc1c(NC(=O)C(C)Sc2nc(N)cc(=O)[nH]2)c(=O)n(-c2ccccc2)n1C (centres unmarked),18.5
5,COC(=O)Nc1ccc(C)c2nsnc12,-1
6,COc1ccc(C2=Nc3cc(C)ccc3OC2)cc1,12.9
7,CS(=O)(=O)Nc1ccc(C2=NN(S(=O)(=O)c3ccc(F)cc3)C(c3ccco3)C2)cc1 (centres unmarked),-70.2
8,CC1=C(C(=O)OCc2ccccc2)C(c2ccc3ccccc3c2)NC(=O)N1CCCCCC(=O)O (centres unmarked),-14.1
9,N#C/C(=C/c1ccc2c(c1)OCO2)C(=O)Nc1ccc(O)cc1,-0.516
10,CCN(c1ccc(NC(=O)COC(=O)c2cc3ccccc3oc2=O)cc1)C(C)C,-3.57
11,CC(OC(=O)c1cccc(NS(C)(=O)=O)c1)C(=O)Nc1ccc(N2CCOCC2)cc1 (centres unmarked),3.1
12,CCSc1nnc(NC(=O)c2ccccc2C)s1,17.6
13,COCCn1c(SCC(=O)c2ccccc2)nc2ccccc2c1=O,-12.4
14,CC(=O)CCc1ccc(OC(=O)c2cccnc2)cc1,14.4
15,CSc1nnc(Cn2c(=O)sc3ccccc32)n1-c1ccccc1C,4.71
16,CCN(CC)c1ccc(NC(=O)Nc2cccc(C(C)=O)c2)cc1,-6.8
17,Cn1nnnc1SCC(=O)NC(=O)NCc1ccccc1,8.75
18,CC(=O)OC(C(=O)NC1CCCCC1)c1ccc(C)cc1 (centres unmarked),5.65
19,Cc1noc(C)c1C(=O)N(CC(=O)Nc1ccccc1Br)Cc1ccco1,-13.4
20,CCC1CCCCN1CCNC(=O)C1CCN(S(=O)(=O)c2c(C)noc2C)CC1 (centres unmarked),3.12
21,CN(C)C(=O)CN1C(=O)NC(c2ccccc2)(c2ccccc2)C1=O,-1.04
22,CCC(=O)c1ccc(N2CCN(C(=O)c3ccccc3Br)CC2)c(F)c1,-26.8

row,Structure (SMILES),"hERG current change (%, negative = inhibition) at 10uM [%]"
1,O=C1CC[C@@H](O)CCN1CC[C@H](Sc1ccc(Br)cc1)c1ccccc1,-29.6
2,O=C(O)C1(c2ccccc2)CCN(S(=O)(=O)c2cccc(Cl)c2)CC1,9.58
3,O=C(CN1CCN(Cc2cccc(Cl)c2)C1=O)N1CCC2(CC1)OCCO2,14.7
4,CC(C)c1ccc2c(c1)C(=O)NC(C)(C)C2,-9.41
5,COc1cccc(C2SCC(=O)N2c2cccc(C)c2)c1OC (centres unmarked),-10.7
6,CC1=C/C(=C/N(C)c2ccccc2)C(=O)S1,-3.05
7,O=c1ncn(-c2ccccc2F)c2ncccc12,-8.06
8,Cc1nc(NC(=O)CSc2nnc(C)n2CC2CCCO2)sc1C (centres unmarked),-0.562
9,Cc1oc2cc3oc(=O)c(CC(=O)O)c(C)c3cc2c1-c1ccccc1,14.3
10,COc1ccc(C(=O)O/N=C(\N)Cc2ccc(Cl)cc2Cl)cc1OC,-25.4
11,Cc1ccc(Cl)cc1NC(=O)N[C@@H](C)C(=O)O,11.3
12,CN1CCN(NC(=O)c2cc(S(=O)(=O)Nc3ccc(Cl)cc3)ccc2Cl)CC1.Cl,5.84
13,O=C(N/N=C/c1ccc(N2CCOCC2)cc1)c1ccc(NS(=O)(=O)c2cccs2)cc1,9.69
14,Br.O=C(CNc1ccc(F)cc1)c1ccccc1,17.1
15,Cn1ncc(N=Cc2ccccc2)c1C(=O)Nc1cccc(Cl)c1,11.8
16,COc1cc(C2OCC3C(c4cc(OC)c(OC)c(OC)c4)OCC23)cc(OC)c1OC (centres unmarked),5.48
17,CCCNS(=O)(=O)c1ccc(OCC(=O)N2CCCC2)cc1,8.81
18,COc1cc(/C=N/NC(=O)c2ccc(NC(=O)C3CC3)cc2)ccc1OC(C)=O,1.29
19,COc1cccc(/C=C2\SC(=O)N(CCC(=O)N3CCC(C(=O)O)CC3)C2=O)c1,6.76
20,Cc1cccc(NC(=S)NC(=O)c2ccc(Br)o2)c1,5.32
21,COc1ccc(C(=O)NCc2cc(C)nc3ccccc23)cc1OC,-8.56
22,O=C(Nc1nccs1)c1ccc(Cl)c(S(=O)(=O)N2CCCCC2)c1,5.94
